# According to the supplement of paper PMC8728848:
# The list shows a part of the results.
# B1: Siglec-9 (Homo sapiens), Q9Y336 (protein)
# chain: MLLLLLPLLWGRERAEGQTSKLLTMQSSVTVQEGLCVHVPCSFSYPSHGWIYPGPVVHGYWFREGANTDQDAPVATNNPARAVWEETRDRFHLLGDPHTKNCTLSIRDARRSDAGRYFFRMEKGSIKWNYKHHRLSVNVTALTHRPNILIPGTLESGCPQNLTCSVPWACEQGTPPMISWIGTSVSPLDPSTTRSSVLTLIPQPQDHGTSLTCQVTFPGASVTTNKTVHLNVSYPPQNLTMTVFQGDGTVSTVLGNGSSLSLPEGQSLRLVCAVDAVDSNPPARLSLSWRGLTLCPSQPSNPGVLELPWVHLRDAAEFTCRAQNPLGSQQVYLNVSLQSKATSGVTQGVVGGAGATALVFLSFCVIFVVVRSCRKKSARPAAGVGDTGIEDANAVRGSASQGPLTEPWAEDSPPDQPPPASARSSVGEGELQYASLSFQMVKPWDSRGQEATDTEYSEIKIHR
# Key:
# Assay in all cases: glycan array binding signal (z-score within array); higher = stronger binding
# Details in all cases: glycan notation: IUPAC condensed, linker removed
# GalNAc3S(b1-4)GlcNAc3S = target: GalNAc3S(b1-4)GlcNAc3S
# In short: (§1)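 Arrays were curated from the Consortium for Functional Glycomics database, 3228 in total, and kept only where the protein sequence was available. Binding is expressed as a within-array Z-score. This score was averaged across arrays of the same protein sequence at different concentrations or buffers and across linkers, and negative values can be read as non-binding.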
# [1] = target: GalNAc3S(b1-4)[Fuc(a1-3)]GlcNAc
# In short: as §1
# GalNAc4S6S(b1-4)GlcNAc = target: GalNAc4S6S(b1-4)GlcNAc
# In short: as §1
# GalNAc6S(b1-4)GlcNAc = target: GalNAc6S(b1-4)GlcNAc
# In short: as §1
# Glc(a1-4)Glc = target: Glc(a1-4)Glc
# In short: as §1
# [2] = target: Glc(a1-4)Glc(a1-4)Glc(a1-4)Glc
# In short: as §1
# Glc(a1-6)Glc(a1-6)Glc = target: Glc(a1-6)Glc(a1-6)Glc
# In short: as §1
# [3] = target: Glc(a1-6)Glc(a1-6)Glc(a1-6)Glc
# In short: as §1
# Glc(b1-4)Glc = target: Glc(b1-4)Glc
# In short: as §1
# Glc(b1-6)Glc = target: Glc(b1-6)Glc
# In short: as §1
# GlcA(b1-3)Gal = target: GlcA(b1-3)Gal
# In short: as §1
# GlcA(b1-3)GlcNAc = target: GlcA(b1-3)GlcNAc
# In short: as §1
# GlcA(b1-6)Gal = target: GlcA(b1-6)Gal
# In short: as §1
# [4] = target: GlcA3S(b1-3)Gal(b1-4)GlcNAc(b1-2)Man
# In short: as §1
# [5] = target: GlcA3S(b1-3)Gal(b1-4)GlcNAc(b1-3)Gal(b1-4)Glc
# In short: as §1
# [6] = target: GlcNAc(a1-3)Gal(b1-4)GlcNAc
# In short: as §1
# [7] = target: GlcNAc(a1-4)Gal(b1-3)GlcNAc
# In short: as §1
# [8] = target: GlcNAc(a1-4)Gal(b1-4)GalNAc
# In short: as §1
# [9] = target: GlcNAc(a1-4)Gal(b1-4)GlcNAc
# In short: as §1
# [10] = target: GlcNAc(a1-4)Gal(b1-4)GlcNAc(b1-3)Gal(b1-4)Glc
# In short: as §1
# [11] = target: GlcNAc(a1-4)Gal(b1-4)GlcNAc(b1-3)Gal(b1-4)GlcNAc
# In short: as §1
# [12] = target: GlcNAc(a1-4)Gal(b1-4)GlcNAc(b1-3)Gal(b1-4)GlcNAc(b1-3)Gal(b1-4)GlcNAc
# In short: as §1
# [13] = target: GlcNAc(a1-4)Gal(b1-4)GlcNAc(b1-3)Gal(b1-4)[Fuc(a1-3)]GlcNAc(b1-3)Gal(b1-4)[Fuc(a1-3)]GlcNAc
# In short: as §1
# [14] = target: GlcNAc(a1-6)Gal(b1-4)GlcNAc
# In short: as §1
# [15] = target: GlcNAc(b1-2)Gal(b1-3)GalNAc
# In short: as §1
# [16] = target: GlcNAc(b1-2)Man(a1-3)[GlcNAc(b1-2)Man(a1-6)]Man(b1-4)GlcNAc(b1-4)GlcNAc
# In short: as §1
# [17] = target: GlcNAc(b1-2)Man(a1-3)[GlcNAc(b1-2)Man(a1-6)]Man(b1-4)GlcNAc(b1-4)[Fuc(a1-6)]GlcNAc
# In short: as §1
# [18] = target: GlcNAc(b1-2)Man(a1-3)[GlcNAc(b1-4)][GlcNAc(b1-2)Man(a1-6)]Man(b1-4)GlcNAc(b1-4)GlcNAc
# In short: as §1
# [19] = target: GlcNAc(b1-2)Man(a1-3)[GlcNAc(b1-4)][GlcNAc(b1-2)Man(a1-6)]Man(b1-4)GlcNAc(b1-4)[Fuc(a1-6)]GlcNAc
# In short: as §1
# [20] = target: GlcNAc(b1-2)[GlcNAc(b1-4)]Man(a1-3)[GlcNAc(b1-2)Man(a1-6)]Man(b1-4)GlcNAc(b1-4)GlcNAc
# In short: as §1
# [21] = target: GlcNAc(b1-2)[GlcNAc(b1-4)]Man(a1-3)[GlcNAc(b1-4)][GlcNAc(b1-2)Man(a1-6)]Man(b1-4)GlcNAc(b1-4)GlcNAc
# In short: as §1
# [22] = target: GlcNAc(b1-2)[GlcNAc(b1-4)]Man(a1-3)[GlcNAc(b1-4)][GlcNAc(b1-2)[GlcNAc(b1-6)]Man(a1-6)]Man(b1-4)GlcNAc(b1-4)GlcNAc
# In short: as §1
# [23] = target: GlcNAc(b1-2)[GlcNAc(b1-4)]Man(a1-3)[GlcNAc(b1-4)][GlcNAc(b1-2)[GlcNAc(b1-6)]Man(a1-6)]Man(b1-4)GlcNAc(b1-4)[Fuc(a1-6)]GlcNAc
# In short: as §1
# [24] = target: GlcNAc(b1-2)[GlcNAc(b1-6)]Man(a1-6)[GlcNAc(b1-2)Man(a1-3)]Man(b1-4)GlcNAc(b1-4)GlcNAc
# In short: as §1
# [25] = target: GlcNAc(b1-2)[GlcNAc(b1-6)]Man(a1-6)[GlcNAc(b1-2)Man(a1-3)]Man(b1-4)GlcNAc(b1-4)[Fuc(a1-6)]GlcNAc
# In short: as §1
# [26] = target: GlcNAc(b1-2)[GlcNAc(b1-6)]Man(a1-6)[GlcNAc(b1-4)][GlcNAc(b1-2)Man(a1-3)]Man(b1-4)GlcNAc(b1-4)GlcNAc
# In short: as §1
# GlcNAc(b1-3)Fuc = target: GlcNAc(b1-3)Fuc
# In short: as §1
# GlcNAc(b1-3)Gal = target: GlcNAc(b1-3)Gal
# In short: as §1
binder,measurement,setting,value
B1,glycan array binding signal (z-score),GalNAc3S(b1-4)GlcNAc3S,-0.184
same,glycan array binding signal (z-score),[1],-0.151
same,glycan array binding signal (z-score),GalNAc4S6S(b1-4)GlcNAc,0.223
same,glycan array binding signal (z-score),GalNAc6S(b1-4)GlcNAc,-0.175
same,glycan array binding signal (z-score),Glc(a1-4)Glc,-0.15
same,glycan array binding signal (z-score),[2],-0.154
same,glycan array binding signal (z-score),Glc(a1-6)Glc(a1-6)Glc,-0.217
same,glycan array binding signal (z-score),[3],-0.284
same,glycan array binding signal (z-score),Glc(b1-4)Glc,-0.233
same,glycan array binding signal (z-score),Glc(b1-6)Glc,-0.503
same,glycan array binding signal (z-score),GlcA(b1-3)Gal,-0.202
same,glycan array binding signal (z-score),GlcA(b1-3)GlcNAc,0.06
same,glycan array binding signal (z-score),GlcA(b1-6)Gal,-0.199
same,glycan array binding signal (z-score),[4],-0.029
same,glycan array binding signal (z-score),[5],0.196
same,glycan array binding signal (z-score),[6],-0.228
same,glycan array binding signal (z-score),[7],-0.275
same,glycan array binding signal (z-score),[8],-0.395
same,glycan array binding signal (z-score),[9],-0.269
same,glycan array binding signal (z-score),[10],-0.03
same,glycan array binding signal (z-score),[11],-0.343
same,glycan array binding signal (z-score),[12],-0.352
same,glycan array binding signal (z-score),[13],0.018
same,glycan array binding signal (z-score),[14],-0.324
same,glycan array binding signal (z-score),[15],-0.132
same,glycan array binding signal (z-score),[16],-0.142
same,glycan array binding signal (z-score),[17],0.025
same,glycan array binding signal (z-score),[18],0.025
same,glycan array binding signal (z-score),[19],-0.288
same,glycan array binding signal (z-score),[20],-0.181
same,glycan array binding signal (z-score),[21],0.232
same,glycan array binding signal (z-score),[22],-0.199
same,glycan array binding signal (z-score),[23],-0.152
same,glycan array binding signal (z-score),[24],-0.167
same,glycan array binding signal (z-score),[25],-0.14
same,glycan array binding signal (z-score),[26],-0.254
same,glycan array binding signal (z-score),GlcNAc(b1-3)Fuc,-0.068
same,glycan array binding signal (z-score),GlcNAc(b1-3)Gal,-0.115
